# Data: PubChem BioAssay AID624296 (National Center for Advancing Translational Sciences (NCATS), 2012)
# Among all 350,000 compounds or so, about 9,900 (2.8%) were called active. The inconclusive results got no clear call from the source; some entries with a clear call stand among them for comparison. Calls come from the whole dose curve; as a rule, active = well fitted activation curve with a large enough effect; inconclusive = small, poorly fitted or top-dose-only effect; inactive = no such curve, though single readings can be large or run the other way. No potency is given beside an inconclusive call; the fits are too rough.
# Test: A quantitative high throughput screen for small molecules that induce DNA re-replication in MCF 10a normal breast cells. For activity, positive = re-replication: % of control where 0% means no effect. Note: nearly all actives have a fitted effect of over 50% in size.
# Details: MCF 10A DNA re-replication, Hoechst nuclear intensity, 48 h; activity, positive = re-replication: at 46.1 µM (top of the series)
# Potency is the fitted concentration of half-maximal effect; tags give direction and shape of the fitted curve.
Compound,Potency,"activity, positive = re-replication"
CCc1ccc(-c2cc(C(F)(F)F)n3nc(C(=O)Nc4cnn(Cc5ccc(C)cc5)c4)cc3n2)s1,"inconclusive [activator, full curve, poor fit]",–
C=CC[C@H](CC(=O)N(CCO)Cc1ccccc1)C(=O)N[C@@H](COC(=O)[C@H](CC=C)CC(=O)OC(C)(C)C)Cc1c[nH]c2ccccc12,active: 23.1 µM,–
COc1cc(C2Nc3ccc4ccccc4c3C3=C2C(=O)CC(C)(C)C3)ccc1OC(C)C(=O)O (configuration not stated),"inconclusive [activator, single point]",–
Oc1ccc(C23CCCC2C2(CCCC2)c2ccc(O)cc2O3)c(O)c1 (configuration not stated),"inconclusive [activator, single point]",–
CC(Oc1ccc(-c2ccccc2)c(F)c1)c1ccn(S(=O)(=O)c2cccc3ccccc23)n1 (configuration not stated),"inconclusive [activator, partial curve, poor fit]",–
CCc1cc(Cn2nc(-c3ccccc3)cc2C(=O)NCc2cccc(Br)c2)on1,"inconclusive [activator, single point]",–
COc1ccc(C2CC(=O)Oc3c(C(CCN4CCCCC4)c4ccc(N(C)C)cc4)c(OC)cc(OC)c32)cc1 (configuration not stated),"inconclusive [activator, partial curve]",–
COc1ccc(NC(=O)CCCn2c(=O)c3sccc3n(Cc3ccc(C)cc3)c2=O)cc1,"inconclusive [activator, single point]",–
CCc1nnc(NC(=O)c2ccc(OC)cc2OC)s1,–,inactive: 0.305%
CS(=O)(=O)N1CCN(c2ccccc2NC(=O)c2ccc([N+](=O)[O-])o2)CC1,"inconclusive [activator, partial curve, poor fit]",–
COc1ccc(N=Nc2c(C)[nH]c3ccccc23)cc1,"inconclusive [activator, partial curve, poor fit]",–
CCn1c(=O)cc(SCC(=O)NCc2ccc(C)o2)c2ccccc21,active: 20.6 µM,–
O=C(N/N=C1\CCCc2ccccc21)c1cccc([N+](=O)[O-])c1,"inconclusive [activator, partial curve, poor fit]",–
Cc1ccccc1C(=O)N1CCC(C(=O)NC2CCCC2)CC1,–,inactive: -8.59%
O=c1oc2cc(Oc3ccc(C(F)(F)F)cc3[N+](=O)[O-])ccc2c2c1CCCC2,"inconclusive [activator, partial curve, poor fit]",–
C#CC[N+](C)(C)CC#Cc1ccc(Cl)cc1,"inconclusive [activator, single point]",–
CCOC(=O)CCc1c(C)c2ccc(OC3CCCCC3=O)cc2oc1=O (configuration not stated),–,inactive: -0.598%
CCCC(=O)N1CCN(Cc2ccc3c(c2)OCO3)CC1,"inconclusive [activator, partial curve]",–
CC(c1nnc(SCC(=O)Nc2cccnc2Cl)n1-c1ccccc1)N(C)C (configuration not stated),–,inactive: 10%
Cc1cc(C)cc(OCC(=O)N2N=C(C(F)(F)F)CC2(O)C(C)(C)C)c1 (configuration not stated),"inconclusive [activator, single point]",–
CN(C)S(=O)(=O)N1CCN(CC(O)COc2ccc(C(=O)c3ccccc3)cc2)CC1 (configuration not stated),–,inactive: 9.41%
Cc1ccccc1OCCn1nc(C(=O)O)c2ccccc2c1=O,"inconclusive [activator, single point]",–
Cc1ccc(C)c(S(=O)(=O)N(C)C2CCS(=O)(=O)C2)c1 (configuration not stated),"inconclusive [activator, full curve, poor fit]",–

Compound,Potency,"activity, positive = re-replication"
CCOC(=O)/C=C(C)/C=C/C=C(C)/C=C/c1c(C)cc(OC)c(C)c1C,active: 26.6 µM,–
CC(C)CN(CC(C)C)c1nc(N)c(C#N)c(CC#N)c1C#N,"inconclusive [activator, partial curve, poor fit]",–
Cc1ccc(-c2nc3cc(Cl)ccc3o2)cc1,–,inactive: -11.7%
Cc1nc2oc(C(=O)c3ccccc3)c(N)c2c2c1COC(C)(C)C2,"inconclusive [activator, single point]",–
COc1ccc(Sc2nc3ccccc3n3c(C(F)(F)F)nnc23)cc1,–,inactive: 12.3%
C1=Nc2c(NCc3ccccc3)ncnc2Oc2ccccc21,"inconclusive [activator, partial curve, poor fit]",–
CCCc1[nH]nc2c1C(c1cn[nH]c1-c1ccc(F)cc1)C(C#N)=C(N)O2 (configuration not stated),"inconclusive [activator, single point]",–
COc1ccc(CCNC(=O)CN(c2ccc(OC)c(OC)c2)S(=O)(=O)c2ccc(C)cc2)cc1,–,inactive: -18.5%
O=C(Cc1ccc(Br)cc1)NC1CCN(Cc2ccccc2)CC1,"inconclusive [activator, single point]",–
O=C(NCCCN1CCOCC1)c1sc2cc(Cl)ccc2c1Cl,"inconclusive [activator, single point]",–
CC(C)(C)C(=O)NC(Nc1cccc2cccnc12)C(Cl)(Cl)Cl (configuration not stated),active: 20.6 µM,–
O=C(NC(=S)Nc1ccc(O)cc1)c1ccccc1Cl,–,inactive: -23%
Cc1n[nH]c(=S)n(/N=C/c2cccs2)c1=O,"inconclusive [activator, single point]",–
O=C(CSc1nc(C2CC2)nc2ccccc12)Nc1ccccc1N1CCOCC1,"inconclusive [activator, full curve, poor fit]",–
COc1ccc(NC(=O)CCC(=O)c2ccc(C(C)C)cc2)cc1,"inconclusive [activator, single point]",–
CC1=Nc2cc(C(=O)NCc3ccco3)ccc2Sc2ccc(C)cc21,active: 1.03 µM,–
O=C(Nc1cc(Sc2ccccn2)cc([N+](=O)[O-])c1)c1cccc(Cl)c1,–,inactive: 28.5%
Cc1[nH]n(C(N)=S)c(=O)c1C(c1ccccc1)C(C#N)C#N (configuration not stated),–,inactive: -13.1%
CSc1ccccc1-n1nnnc1SCC(=O)Nc1ccccc1C,"inconclusive [activator, single point]",–
Cc1nccn1CC(=O)N/N=C/c1ccccc1O,"inconclusive [activator, single point]",–
COCCCn1c(=O)/c(=C\c2ccccc2OC(F)F)s/c1=C(/C#N)C(N)=O,"inconclusive [activator, full curve]",–
CC(C)C[C@H](NC(=O)c1nc[nH]c1C(=O)NCC(=O)OC(C)(C)C)C(=O)OCc1ccccc1,"inconclusive [activator, partial curve, poor fit]",–
CC1=C(C(=O)OCc2ccccc2)C(c2cccnc2)c2c(n(C)c(=O)n(C)c2=O)N1 (configuration not stated),"inconclusive [activator, full curve, poor fit]",–

Compound,Potency,"activity, positive = re-replication"
COc1cc(/C=C2\CC/C(=C\c3cc(OC)c(OC)c(OC)c3)C2=O)cc(OC)c1OC,active: 5.8 µM,–
O=C(NCCOc1ccc(Cl)cc1)c1cccc(S(=O)(=O)N2CCCC2)c1,"inconclusive [activator, single point]",–
CN(C)S(=O)(=O)N1CCC(Oc2cccc(C(=O)NCCCC3CCCC3)c2)CC1,"inconclusive [activator, partial curve, poor fit]",–
COc1ccc(OCc2cc(C(=O)N3CCN(CC4CC4)CC3)no2)c(Cl)c1,"inconclusive [activator, partial curve, poor fit]",–
O=C(NCC(c1cccs1)N1CCOCC1)c1ccc(Cl)s1 (configuration not stated),"inconclusive [activator, single point]",–
CCS(=O)(=O)N1Cc2ccccc2CC1C(=O)N(C)CC(=O)Nc1cccc(F)c1 (configuration not stated),–,inactive: 2.2%
COc1ccc(Cl)cc1C(=O)Nn1c(-c2cccs2)nc2ccccc2c1=O,"inconclusive [activator, single point]",–
COCCNC(=O)c1cccc(S(=O)(=O)N2CC3(C)CC2CC(C)(C)C3)c1 (configuration not stated),–,inactive: 3.18%
CNC(=O)c1cc(S(=O)(=O)N2CC(C)OC(C)C2)ccc1N1CCCCC1 (configuration not stated),"inconclusive [activator, partial curve, poor fit]",–
COc1ccc(/C=N/NS(=O)(=O)c2ccccc2)cc1OC,–,inactive: -0.14%
CC(C)(C)c1cc(NCCCn2ccnc2)n2ncc(-c3ccc(Cl)cc3)c2n1,"inconclusive [activator, single point]",–
CC(C)Cc1nc2sc3c(c2c(=O)n1N)CC(C(C)C)OC3 (configuration not stated),"inconclusive [activator, partial curve, poor fit]",–
Cc1cc(C)c2c(c1)/C(=N/NS(=O)(=O)c1ccccc1)CCC2,"inconclusive [activator, single point]",–
COc1ccc(C(=O)N=C2CCC(C#N)=C3c4cc(OC)c(OC)cc4CCN23)cc1,"inconclusive [activator, full curve, poor fit]",–
CCC(=O)n1nc(-c2ccc(Cl)cc2)nc1N,"inconclusive [activator, single point]",–
C(=N\n1cnnc1)/c1cccc2ccccc12,–,inactive: 2.06%
CCN(CC)CCNC(=O)c1ccc(Cl)c(S(=O)(=O)Nc2ccc(Cl)cc2)c1,inactive,–
O=C(Nc1nc2ccccc2n1Cc1ccccc1)c1ccc(COc2ccccc2[N+](=O)[O-])o1,"inconclusive [activator, single point]",–
Cc1c(C)c(C)c(C(=O)CCc2cccc(NC(=O)CCC(=O)O)c2)c(C)c1C,–,inactive: -7.71%
COc1cc2c(cc1OC)CN(Cc1ccc(C)s1)CC2,"inconclusive [activator, single point]",–
CCCc1nc(SCC(=O)N2CCCc3ccccc32)c2c(=O)n(C)c(=O)n(C)c2n1,"inconclusive [activator, single point]",–
